Measured values taken from the supplement of paper PMC10126150.
Values marked as one replicate rest on one cluster of the flow cell; about a third of the high ones do not repeat.

These sequences were tested on ATP (assay: switch fluorescence ratio, 500 uM ATP over buffer (Cy3 cluster intensity, sum of 5 cycles each) (fold (ratio)); higher = stronger signal-on switching upon ATP binding; sequences stand for … in TCGTCGGCAGCGTCAGATGTGTATAAGAGACAGTTTTTTTTTTTTTTTTTTTTTTTTT…TC). Settings: aptamer strand: ATP DNA aptamer (quencher-CACCTGGGGGAGTATTGCGGAGGAAGG + anchor), 100 nM annealed; ATP concentration: 500 uM; one replicate.
In short: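 Exposure to 500 uM ATP lasted 15 min at 22 °C before imaging, and a selection-buffer image was taken beforehand, for Cy3-labelled switching-strand clusters on a modified Illumina MiSeq flow-cell annealed to 100 nM quencher-labelled ATP aptamer. Five buffer/ATP cycles were run with NaOH stripping and re-annealing between them. The fluorescence ratio per cluster is summed target-cycle over summed buffer-cycle Cy3 intensity, averaged per switch-domain sequence. Clusters outside 100-1000 RFU were excluded.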
In the case of AGAGGGCTTA, the switch fluorescence ratio is reported as 0.939.
GCTGTTTATT was tested, and the switch fluorescence ratio was 0.982.
In the case of TCGCTCACTA, the switch fluorescence ratio is reported as 1.03.
For TTAGTGGGTG, the switch fluorescence ratio was 0.959.
With GTGTTAATTT the switch fluorescence ratio was 1.01.
With ATTCGCGTAG the switch fluorescence ratio was 1.02.
Work on AGACTAACCG yielded a switch fluorescence ratio of 0.974.
GAACAAATGT showed a switch fluorescence ratio of 0.966.
CGATAATGGA was tested, and the switch fluorescence ratio was 0.987.
With GGGCATTGCA the switch fluorescence ratio was 1.01.
GACCTACTCG gave a switch fluorescence ratio of 1.12.
With CGGAGATGAC the switch fluorescence ratio was 1.28.
In the case of GTTGTCCGGA, the switch fluorescence ratio is reported as 1.04.
CCTATATGCC was tested, and the switch fluorescence ratio was 0.976.
GCCTGATGTA was tested, and the switch fluorescence ratio was 1.01.
Sequence ACAAGTGGCC has a switch fluorescence ratio of 1.03.
TAGTGTATGG showed a switch fluorescence ratio of 1.
With TACATTCATT the switch fluorescence ratio was 0.969.
In the case of GAGGATGATA, the switch fluorescence ratio is reported as 1.03.
With CATGAGGAGA the switch fluorescence ratio was 1.05.
In the case of CTAGGGGTAA, the switch fluorescence ratio is reported as 0.969.
ATAAGTTCGG was tested, and the switch fluorescence ratio was 1.03.
With GGAAGGTTGG the switch fluorescence ratio was 0.957.
AAAGTATAT showed a switch fluorescence ratio of 0.97.
Sequence AATCTACATC has a switch fluorescence ratio of 0.999.
For ATAGAGCGTC, the switch fluorescence ratio was 1.04.
Sequence GCCAATTACC has a switch fluorescence ratio of 1.11.
AGCTCTACAT was tested, and the switch fluorescence ratio was 1.02.
GTGATCATAA showed a switch fluorescence ratio of 1.02.
For GGTATCGACG, the switch fluorescence ratio was 0.991.
Sequence TTTCATGCGC has a switch fluorescence ratio of 1.14.
In the case of GTCATGTTGA, the switch fluorescence ratio is reported as 0.991.
Sequence TGTGTGTGCA has a switch fluorescence ratio of 1.
Work on GGGGCGCAGT yielded a switch fluorescence ratio of 0.93.
AAAAGAGAAA gave a switch fluorescence ratio of 0.946.
GTTGTGGTAA gave a switch fluorescence ratio of 1.
ACAAATCTTA showed a switch fluorescence ratio of 1.02.
With TACACCCGCA the switch fluorescence ratio was 1.21.
With GGCGGTAAGT the switch fluorescence ratio was 0.961.
GCGTTCACCT showed a switch fluorescence ratio of 1.07.
In the case of CGCACATCTT, the switch fluorescence ratio is reported as 1.37.
Work on CAGATTGTAA yielded a switch fluorescence ratio of 0.973.
For TTTATCGCAA, the switch fluorescence ratio was 2.49.
With CCGCTGCTCG the switch fluorescence ratio was 2.8.
Sequence AGATAGCGTA has a switch fluorescence ratio of 1.
In the case of CCCAGCGGAG, the switch fluorescence ratio is reported as 1.02.
With CAGAGGATTC the switch fluorescence ratio was 1.01.
GGTGTGGAT gave a switch fluorescence ratio of 1.03.
In the case of TCCCCATCGT, the switch fluorescence ratio is reported as 1.04.
Work on ACGCAAAAGG yielded a switch fluorescence ratio of 1.09.
ATATCAGAAT showed a switch fluorescence ratio of 1.04.
CTTATTTTA gave a switch fluorescence ratio of 0.998.
CCGGGATTTA was tested, and the switch fluorescence ratio was 0.969.
Sequence CCTTGTGCCC has a switch fluorescence ratio of 0.964.
In the case of TGGCCAAGGT, the switch fluorescence ratio is reported as 1.01.
CGAGTTGGGA showed a switch fluorescence ratio of 0.987.
Work on TACCTGGGTG yielded a switch fluorescence ratio of 1.96.
Work on GAGTCGGATA yielded a switch fluorescence ratio of 1.01.
CTGTTCGTCC showed a switch fluorescence ratio of 1.02.
Work on CTCAAAAGAA yielded a switch fluorescence ratio of 1.07.
ACTGACCAGA showed a switch fluorescence ratio of 1.1.
Sequence TAGCTTGGG has a switch fluorescence ratio of 1.01.
Work on GGCCGACCGC yielded a switch fluorescence ratio of 1.4.
CGAGTCTCAT showed a switch fluorescence ratio of 1.01.
With GTCTCTAGAA the switch fluorescence ratio was 0.983.
For CCGAAGGGAC, the switch fluorescence ratio was 1.78.
In the case of GGCAAAGGTG, the switch fluorescence ratio is reported as 1.48.
TTAGCGTGGA was tested, and the switch fluorescence ratio was 1.04.
TTGGATTTCG was tested, and the switch fluorescence ratio was 0.997.
For ATGGTGGTTA, the switch fluorescence ratio was 1.01.
TTAGATGAAA was tested, and the switch fluorescence ratio was 0.993.
In the case of GACCGTATAG, the switch fluorescence ratio is reported as 1.
AGCAGGGA was tested, and the switch fluorescence ratio was 1.11.
In the case of CAAAGGCTAC, the switch fluorescence ratio is reported as 1.27.
TTGCTAGGTC was tested, and the switch fluorescence ratio was 1.02.
Sequence TTAATGTTT has a switch fluorescence ratio of 0.99.
With TATCGGGGAT the switch fluorescence ratio was 1.
For AATCCGCTCG, the switch fluorescence ratio was 1.11.
For TTTCTTTTAG, the switch fluorescence ratio was 1.01.
With TCGGTCTTCG the switch fluorescence ratio was 1.02.
GCAAAGTCT gave a switch fluorescence ratio of 0.954.
With AGACGCTGCT the switch fluorescence ratio was 0.986.
For GTCACCGTAA, the switch fluorescence ratio was 1.12.
In the case of CGAAGATTGT, the switch fluorescence ratio is reported as 0.957.
Sequence GTTAAGTTCT has a switch fluorescence ratio of 1.39.
AGACAGATGC gave a switch fluorescence ratio of 0.989.
GATCACCTAT was tested, and the switch fluorescence ratio was 0.985.
For CGCAGGACGA, the switch fluorescence ratio was 1.05.
TGACGGTAAT gave a switch fluorescence ratio of 1.07.
Sequence ACTCTCGATG has a switch fluorescence ratio of 0.99.
With CAGGACGGCA the switch fluorescence ratio was 1.01.
In the case of AAGTTAATTG, the switch fluorescence ratio is reported as 0.988.
With CATCGTCTTT the switch fluorescence ratio was 0.961.
GACCCGGCCC gave a switch fluorescence ratio of 1.03.
TAGAAGGCCA was tested, and the switch fluorescence ratio was 1.02.
With GCTGGCCCTG the switch fluorescence ratio was 0.971.
In the case of GGCTGTATCA, the switch fluorescence ratio is reported as 1.03.
CCGTACCGTG was tested, and the switch fluorescence ratio was 1.09.
AGCCGTAGCT showed a switch fluorescence ratio of 1.15.
Work on TAAAAGGGCA yielded a switch fluorescence ratio of 0.993.
TTTGGGAGAG showed a switch fluorescence ratio of 1.5.
Work on TTACTAGCAT yielded a switch fluorescence ratio of 1.29.
CAGTGCACGT was tested, and the switch fluorescence ratio was 1.02.
Sequence TCCGGGTGGC has a switch fluorescence ratio of 1.4.
With AAAGCTAATG the switch fluorescence ratio was 0.986.
For ATGGAGTATT, the switch fluorescence ratio was 0.973.
With ACCATCCCTT the switch fluorescence ratio was 1.02.
Work on TAGCGGGGGT yielded a switch fluorescence ratio of 0.939.
Work on TACATGGG yielded a switch fluorescence ratio of 0.943.
For CTCGGTGGCG, the switch fluorescence ratio was 0.98.
TAGCGTACTC showed a switch fluorescence ratio of 2.17.
Work on GTTTAGCAAT yielded a switch fluorescence ratio of 1.68.
Work on CACTCGGTCT yielded a switch fluorescence ratio of 1.04.
Work on AAGGTCCTCA yielded a switch fluorescence ratio of 1.01.
Work on TCGGCTGGTG yielded a switch fluorescence ratio of 1.03.
CTCAGAAATT was tested, and the switch fluorescence ratio was 1.07.
TCTGGAGGAT showed a switch fluorescence ratio of 0.992.
Work on TCTTGGTAG yielded a switch fluorescence ratio of 0.999.
For TTCTTCCCTT, the switch fluorescence ratio was 1.01.
GTCGGTCCAA gave a switch fluorescence ratio of 1.03.
For TCTGTTCGTC, the switch fluorescence ratio was 1.01.
TCAATAATCT gave a switch fluorescence ratio of 1.02.
For GTGTCCGTAT, the switch fluorescence ratio was 1.02.
TTAATTAGTG gave a switch fluorescence ratio of 1.01.
AACGACGTTC gave a switch fluorescence ratio of 1.05.
ACCCCATAAC showed a switch fluorescence ratio of 1.12.
In the case of GAGTGGACGA, the switch fluorescence ratio is reported as 0.982.
GCCAGGCGGG showed a switch fluorescence ratio of 0.997.
Sequence AGCCCCAGTC has a switch fluorescence ratio of 1.09.
Work on CCTCAATAGA yielded a switch fluorescence ratio of 1.92.
For AGCTTTTCG, the switch fluorescence ratio was 1.04.
TTTAAGTACA gave a switch fluorescence ratio of 1.03.
With ACGGGAGTAC the switch fluorescence ratio was 0.956.
With GGCTTTTATT the switch fluorescence ratio was 0.999.
In the case of TGCAGCGGGA, the switch fluorescence ratio is reported as 1.04.
With GGCACACTAG the switch fluorescence ratio was 0.994.
Work on TGCGCGGAG yielded a switch fluorescence ratio of 1.06.
GGAGAGTTTT was tested, and the switch fluorescence ratio was 0.964.
In the case of TGAAAAGCTT, the switch fluorescence ratio is reported as 0.98.
For TAATGGGCCG, the switch fluorescence ratio was 1.11.
For AAGGAGGAGT, the switch fluorescence ratio was 1.24.
AACCTCGG gave a switch fluorescence ratio of 0.961.
With TGCGCACTCT the switch fluorescence ratio was 1.05.
Sequence TTCGCAAAAG has a switch fluorescence ratio of 3.14.
With CGGGGCGGGC the switch fluorescence ratio was 1.01.
Work on AACTGGATCG yielded a switch fluorescence ratio of 1.09.
With TTTGTGAAGC the switch fluorescence ratio was 0.991.
With ATTTGCGGAA the switch fluorescence ratio was 1.03.
With TATTGCTGGG the switch fluorescence ratio was 1.02.
With TGCGCGGGGC the switch fluorescence ratio was 1.1.
Sequence TATAATCTTC has a switch fluorescence ratio of 1.06.
For AATAGCCAAC, the switch fluorescence ratio was 1.03.
CTAGGATCCG gave a switch fluorescence ratio of 0.983.
CAGCGCATGG showed a switch fluorescence ratio of 1.35.
Sequence GTATGATCTC has a switch fluorescence ratio of 0.988.
In the case of GCTGACGAGG, the switch fluorescence ratio is reported as 1.07.
Work on CTTGCAGACA yielded a switch fluorescence ratio of 1.
